Consider 34 compounds from the supplement of paper PMC6609913.

SMILES strings stand for the structures. Where a name gives a salt, the structure may show the parent alone. ± gives the standard deviation of the averaged measurements. The full ranking holds about 1,300 compounds; the median of “normalised cell viability” is about 1, and the lowest 2% start at about 0.14. This is one part of the list.

This experiment deals with V-C8 (BRCA2-deficient hamster cells). The experiment is described as follows: normalised cell viability (fraction of plate median); higher = more viable cells (less toxic). As to conditions: 5 µM. In outline:
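BRCA2-deficient hamster V-C8 cells and BRCA2-restored V-C8 cells were plated in 96-well plates, and library drugs were added 24 h later at 5 μM in 100 μl medium. Exposure lasted 3 days in screen 1 and 6 days in screen 2, next to solvent-only wells. Viability was then read by resazurin assay, median-plate normalised and averaged across triplicate wells.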

For the compound `Cc1nc2n(c(=O)c1CCN1CCC(c3noc4cc(F)ccc34)CC1)CCCC2` [Risperidone], the normalised cell viability turned out to be 1.06 ± 0.018 (treatment time: 3 days) and 1.08 ± 0.076 (treatment time: 6 days).
As to `CNCCC(Oc1ccc(C(F)(F)F)cc1)c1ccccc1` (stereo not drawn) [Fluoxetine hydrochloride], the normalised cell viability is 0.7923 ± 0.0074 (treatment time: 3 days) and 0.752 ± 0.042 (treatment time: 6 days).
`CC(=O)Nc1ccc(CC(=O)O)cc1` [Actarit] returned a normalised cell viability (treatment time: 3 days) of 1.05 ± 0.015 and a normalised cell viability (treatment time: 6 days) of 1.03 ± 0.038.
The matching figures for `OCc1cc(C(O)CNCCCCCCOCCCCc2ccccc2)ccc1O` (stereo not drawn) [Salmeterol]: 0.916 ± 0.079 and 0.879 ± 0.047.
The matching figures for `O=C(O)Cc1sc(-c2ccccc2)nc1-c1ccc(Cl)cc1` [Fentiazac]: 0.978 ± 0.05 and 1 ± 0.031.
For `CC(=O)OCC(=O)[C@@]12N=C(C)O[C@@H]1C[C@H]1[C@@H]3CCC4=CC(=O)C=C[C@]4(C)[C@H]3[C@@H](O)C[C@@]12C` [Deflazacort] the same measures were 0.984 ± 0.029 and 1 ± 0.029.
In turn, `CCN1CC(CCN2CCOCC2)C(c2ccccc2)(c2ccccc2)C1=O` (stereo not drawn) [Doxapram hydrochloride] had a normalised cell viability (treatment time: 3 days) of 0.925 ± 0.022 and a normalised cell viability (treatment time: 6 days) of 1.04 ± 0.089.
Regarding `CC(=O)[C@H]1CC[C@H]2[C@@H]3C[C@H](C)C4=CC(=O)CC[C@]4(C)[C@H]3[C@@H](O)C[C@]12C` [Medrysone], the normalised cell viability reads like this: (treatment time: 3 days) 1.09 ± 0.13; (treatment time: 6 days) 1.01 ± 0.012.
For the compound `CCOC(=O)OC(C)OC1=C(C(=O)Nc2ccccn2)N(C)S(=O)(=O)c2ccccc21` (stereo not drawn) [Ampiroxicam], the normalised cell viability runs as follows: (treatment time: 3 days) 1.03 ± 0.055; (treatment time: 6 days) 1.02 ± 0.041.
For `CCCCNC(=O)NS(=O)(=O)c1ccc(C)cc1` [Tolbutamide] the same measures were 0.977 ± 0.068 and 0.973 ± 0.035.
For `O=C(O)c1cc(-c2ccc(F)cc2F)ccc1O` [Diflunisal] the same measures were 1.04 ± 0.037 and 0.997 ± 0.043.
Regarding `CC(C)(C)NC[C@H](O)c1ccc(O)c(CO)c1` [Levalbuterol hydrochloride], the normalised cell viability worked out at 1.03 ± 0.049 (treatment time: 3 days) and 0.99 ± 0.13 (treatment time: 6 days).
The matching figures for `CCn1cc(C(=O)O)c(=O)c2cnc(N3CCCC3)nc21` [Piromidic acid]: 1.02 ± 0.051 and 1.03 ± 0.08.
The matching figures for `O=S(=O)(O)CCS` [Mesna]: 1.04 ± 0.022 and 1.06 ± 0.043.
For the compound `CN(C)[C@@H]1C(O)=C(C(N)=O)C(=O)[C@@]2(O)C(O)=C3C(=O)c4c(O)ccc(Cl)c4[C@@H](O)[C@H]3C[C@@H]12` [Demeclocycline hydrochloride], the normalised cell viability (treatment time: 3 days) was 0.948 ± 0.035 and the normalised cell viability (treatment time: 6 days) is 0.937 ± 0.015.
`Cn1c([N+](=O)[O-])cnc1COC(N)=O` [Ronidazole]: the normalised cell viability is, setting by setting: (treatment time: 3 days) 0.867 ± 0.095; (treatment time: 6 days) 0.964 ± 0.1.
For `O=C1c2ccccc2S(=O)(=O)N1CCCCN1CCN(c2ncccn2)CC1` [Ipsapirone] the same measures were 1.09 ± 0.075 and 1.04 ± 0.021.
For `COc1ccc(C(=O)NCc2ccc(OCCN(C)C)cc2)cc1OC` [Itopride], the normalised cell viability runs as follows: (treatment time: 3 days) 0.972 ± 0.025; (treatment time: 6 days) 1 ± 0.1.
In the case of `N[C@@H](C(=O)N[C@@H]1C(=O)N2C(C(=O)O)=C(Cl)CS[C@H]12)c1ccccc1` [Cefaclor hydrate], the normalised cell viability is, setting by setting: (treatment time: 3 days) 0.997 ± 0.039; (treatment time: 6 days) 1.09 ± 0.12.
For `CC(Oc1ccccc1)C(=O)N[C@@H]1C(=O)N2[C@@H]1SC(C)(C)[C@@H]2C(=O)O` (stereo partly drawn) [Phenethicillin potassium salt] the same measures were 0.913 ± 0.037 and 0.998 ± 0.043.
Turning to `CN(C)CCOC(=O)COc1ccc(Cl)cc1` [Meclofenoxate hydrochloride], the normalised cell viability was found to be 1.03 ± 0.036 (treatment time: 3 days) and 0.992 ± 0.057 (treatment time: 6 days).
`N=C(N)N/N=C/c1c(Cl)cccc1Cl` [Guanabenz acetate]: the normalised cell viability came out at 1.047 ± 0.0079 (treatment time: 3 days) and 0.973 ± 0.067 (treatment time: 6 days).
As to `OC(CCN1CCCCC1)(c1ccccc1)C1CCCCC1` (stereo not drawn) [Trihexyphenidyl-D,L Hydrochloride], the normalised cell viability stood at 1.02 ± 0.023 (treatment time: 3 days) and 1.03 ± 0.062 (treatment time: 6 days).
On to `CCCc1nc(C(C)(C)O)c(C(=O)O)n1Cc1ccc(-c2ccccc2-c2nnn[nH]2)cc1` [Olmesartan], for which the normalised cell viability (treatment time: 3 days) came out at 1.09 ± 0.073 and the normalised cell viability (treatment time: 6 days) stood at 1.11 ± 0.034.
For `CN(CCOc1ccc(CC2SC(=O)NC2=O)cc1)c1ccccn1` (stereo not drawn) [Rosiglitazone Hydrochloride] the same measures were 0.996 ± 0.043 and 0.901 ± 0.08.
The matching figures for `CCC(=O)OCC(=O)[C@@]1(OC(=O)CC)[C@H](C)C[C@H]2[C@H]3[C@H]([C@@H](O)C[C@@]21C)[C@@]1(C)C=CC(=O)C=C1C[C@H]3Cl` [Alclometasone dipropionate]: 0.957 ± 0.037 and 1.03 ± 0.024.
For `CC(N)C12CC3CC(CC(C3)C1)C2` (stereo not drawn) [Rimantadine Hydrochloride] the same measures were 1.04 ± 0.017 and 1.04 ± 0.029.
With `c1ccc2c(c1)CCCc1cc(NCCN3CCOCC3)nnc1-2`, the normalised cell viability (treatment time: 3 days) amounted to 0.351 ± 0.016 and the normalised cell viability (treatment time: 6 days) turned out to be 0.496 ± 0.056.
The matching figures for `COc1ccc(C[C@@H]2c3cc(OC)c(OC)cc3CC[N@+]2(C)CCC(=O)OCCCCCOC(=O)CC[N@@+]2(C)CCc3cc(OC)c(OC)cc3[C@H]2Cc2ccc(OC)c(OC)c2)cc1OC` [Cisatracurium besylate]: 0.939 ± 0.038 and 0.934 ± 0.028.
Consider `Nc1cc(-c2ccncc2)c[nH]c1=O` [Amrinone], for which the normalised cell viability reads like this: (treatment time: 3 days) 0.938 ± 0.029; (treatment time: 6 days) 0.951 ± 0.018.
On to `OCCOCCN1CCN(C(c2ccccc2)c2ccc(Cl)cc2)CC1` (stereo not drawn) [Hydroxyzine dihydrochloride], for which the normalised cell viability (treatment time: 3 days) was determined as 1.2 ± 0.045 and the normalised cell viability (treatment time: 6 days) is 1.08 ± 0.065.
For `C=CC1=C(C(=O)O)N2C(=O)[C@@H](NC(=O)/C(=N\OCC(=O)O)c3csc(N)n3)[C@H]2SC1` [Cefixime] the same measures were 1.035 ± 0.01 and 1.13 ± 0.048.
For the compound `Cc1cc(-n2c(=O)[nH]c(=O)n(C)c2=O)ccc1Oc1ccc(SC(F)(F)F)cc1` [Toltrazuril], the normalised cell viability was 1.07 ± 0.044 (treatment time: 3 days) and 1 ± 0.073 (treatment time: 6 days).
Regarding `Cc1ccccc1N1C(=O)c2cc(S(N)(=O)=O)c(Cl)cc2NC1C` (stereo not drawn) [Metolazone], the normalised cell viability by setting is: (treatment time: 3 days) 1.11 ± 0.073; (treatment time: 6 days) 1.06 ± 0.07.
